Values joined by “and” are separate entries in the source; they are usually repeats but may differ in a detail not shown here. Identical values can stand only once. Screen size: about 400,000 compounds; about 2,200 (0.55%) were called active. Inconclusive means that the source gave no clear call. Such entries were picked first, then a sample of the others. Calls come from the whole dose curve; as a rule, active = well fitted inhibition curve with a large enough effect; inconclusive = small, poorly fitted or top-dose-only effect, or another doubt; inactive = no such curve, though single readings can be large or run the other way. Potencies of inconclusive entries are doubtful fits and often do not repeat.
biological target: DNA polymerase kappa (Homo sapiens) (UniProt Q9UBT6); test: qHTS for Inhibitors of Polymerase Kappa; conditions: purified Pol kappa, fluorescent DNA synthesis assay, 10 min; series mostly up to 107 µM; activity, negative = inhibition: at the top concentration
UniProt Q9UBT6, sequence (Q9UBT6 whole entry, looked up): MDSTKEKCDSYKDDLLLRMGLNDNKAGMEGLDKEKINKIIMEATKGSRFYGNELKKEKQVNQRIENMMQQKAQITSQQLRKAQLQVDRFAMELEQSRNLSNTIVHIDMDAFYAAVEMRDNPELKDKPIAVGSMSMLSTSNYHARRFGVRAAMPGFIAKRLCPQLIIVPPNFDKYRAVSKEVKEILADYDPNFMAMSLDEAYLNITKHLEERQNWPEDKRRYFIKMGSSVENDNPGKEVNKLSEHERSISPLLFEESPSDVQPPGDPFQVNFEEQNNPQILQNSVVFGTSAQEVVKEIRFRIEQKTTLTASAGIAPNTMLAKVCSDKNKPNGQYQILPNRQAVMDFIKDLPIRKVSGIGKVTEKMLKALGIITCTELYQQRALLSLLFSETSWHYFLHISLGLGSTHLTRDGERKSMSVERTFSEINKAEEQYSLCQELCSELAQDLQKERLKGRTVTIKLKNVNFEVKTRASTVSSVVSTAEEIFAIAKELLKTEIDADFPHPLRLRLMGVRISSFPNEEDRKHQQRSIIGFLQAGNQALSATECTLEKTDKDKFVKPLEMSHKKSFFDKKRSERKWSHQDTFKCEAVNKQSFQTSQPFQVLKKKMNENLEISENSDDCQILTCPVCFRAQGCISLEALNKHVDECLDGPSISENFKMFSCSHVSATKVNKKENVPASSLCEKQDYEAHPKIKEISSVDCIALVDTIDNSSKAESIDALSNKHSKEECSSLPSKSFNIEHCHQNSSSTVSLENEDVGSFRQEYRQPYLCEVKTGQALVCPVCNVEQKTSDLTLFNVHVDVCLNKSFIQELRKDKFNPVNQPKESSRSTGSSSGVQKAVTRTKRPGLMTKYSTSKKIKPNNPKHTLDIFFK
Method in brief: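 50 nM final substrate added after 15 min RT preincubation of 10 nM Pol kappa with compound; fluorescence read at 0 and 10 min.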
% is set by controls: 0 for no effect and ±100 for the full control effect; potency is the fitted concentration of half-maximal effect; tags give direction and shape of the fitted curve.

| SMILES | Potency | activity, negative = inhibition |
| --- | --- | --- |
| O=c1cc(-c2cccc(O)c2O)oc2ccccc12 | active: 12.6 µM |  |
| O=C(Nc1nc(-c2cccs2)c(C(=O)C(F)(F)F)s1)c1ccccc1 | inconclusive: 89.1 µM [inhibitor, single point] |  |
| COc1ccc(N=C2NC(=O)/C(=C\c3ccco3)S2)cc1 | inconclusive: 89.1 µM [inhibitor, single point] |  |
| CCn1cc(C(=O)N(C)Cc2ccccc2)c(=O)c2cc(S(=O)(=O)N3CCCCC3)ccc21 |  | inactive: -6.38% |
| CCOc1ccccc1N1CCN(CC(=O)N(C2CCCC2)C2CCS(=O)(=O)C2)CC1 (centres undefined) |  | inactive: -12.1% |
| CCOC(=O)C1CCCN(C(=O)C2CCN(S(=O)(=O)c3ccc(Cl)c(C(F)(F)F)c3)CC2)C1 (centres undefined) | inconclusive: 100 µM [inhibitor, partial curve, poor fit] |  |
| Cc1c(C(=O)N2CCOCC2)oc2c1-c1nn(CC(=O)NCc3ccccc3)cc1CC2 |  | inactive: -6.3% |
| COc1ccc2nc(C)cc(SCC(=O)N/N=C/c3ccc(O)c(O)c3)c2c1 | active: 28.2 µM |  |
| CC1CCCC(NC(=O)CCNC(=O)c2ccc(Br)cc2)C1C (centres undefined) | inconclusive: 89.1 µM [inhibitor, single point] |  |
| COc1ccccc1CCNc1ncnc2nc[nH]c12 | inconclusive: 89.1 µM [inhibitor, single point] |  |
| Cc1cccc(N2NC(=O)/C(=C/c3ccc(-c4ccc(Cl)c(C(=O)O)c4)o3)C2=O)c1 | active: 35.5 µM |  |
| N#C/C(=C(/O)c1ccc(-c2cccc([N+](=O)[O-])c2)o1)c1nc2ccccc2s1 | inconclusive: 31.6 µM [inhibitor, full curve] |  |
| Cc1ccc(S(=O)(=O)Nc2cc(=O)[nH]c(SCC(=O)Nc3cccc(C)c3)n2)cc1 | inconclusive: 89.1 µM [inhibitor, single point] |  |
| CC(=O)NC1=NC(=O)/C(=C/c2cc(C)n(-c3cccc(C(=O)O)c3)c2C)S1 | active: 39.8 µM |  |
| Cn1c2ccccc2c(=O)c2c(=O)n(Cc3ccco3)c(COc3ccccc3)nc21 | inconclusive: 39.8 µM [inhibitor, partial curve, poor fit] |  |
| Cc1nc(C)c(C(=O)Nc2nc3c(C)cccc3s2)o1 | active: 39.8 µM |  |
| CC(=O)c1ccc(-c2ccc(/C=C(/Sc3n[nH]c(C)n3)C(=O)O)o2)cc1 | inconclusive: 89.1 µM [inhibitor, single point] |  |
| O=C(Nc1nc(-c2ccco2)cs1)c1ccccc1 | inconclusive: 89.1 µM [inhibitor, partial curve, poor fit] |  |
| CC(=O)c1ccc(NC(=O)CSc2ccsc2[N+](=O)[O-])cc1 | inconclusive: 56.2 µM [inhibitor, partial curve, poor fit] |  |
| O=C(CCCCCn1c(=S)[nH]c2cc3c(cc2c1=O)OCO3)N1CCN(C(=O)c2ccco2)CC1 |  | inactive: -30.4% |
| Cc1c(Cl)cnc(NC(=O)COC(=O)[C@H](C)NC(=O)c2ccccc2)c1Cl |  | inactive: -26.6% |
| CCCS(=O)(=O)c1c(S(=O)(=O)CCC)c2c(N)cccn2c1C(=O)c1ccc(Br)cc1 | inconclusive: 89.1 µM [inhibitor, single point] |  |
| Cc1coc2cc3oc(=O)c(CCC(=O)NCCN4CCOCC4)c(C)c3cc12 | inconclusive: 89.1 µM [inhibitor, single point] |  |

| SMILES | Potency | activity, negative = inhibition |
| --- | --- | --- |
| O=C(O)c1ccc(/C=C2\SC(=S)N(Nc3ccccc3)C2=O)cc1 | inconclusive: 100 µM [inhibitor, single point] |  |
| CCCCOc1ccc(CNC(=O)NS(=O)(=O)c2ccc(OCC(C)C)cc2)cc1 | inconclusive: 89.1 µM [inhibitor, single point] |  |
| COc1ccc(C)c2sc(NC(=O)c3ccc(S(=O)(=O)N4CCOCC4)cc3)nc12 |  | inactive: -10.6% [at 60.1 µM] |
| COc1cccc(C(=O)Nc2nc(-c3nnn(-c4ccccc4C(F)(F)F)c3C)ns2)c1 |  | inactive: 20.9% |
| O=P(O)(c1ccccc1)c1ccccc1O |  | inactive: -11.3% |
| COc1ccc(N=C2S/C(=C\c3ccc(OCC(=O)O)cc3)C(=O)N2CCc2c[nH]c3ccccc23)cc1 | active: 15.8 µM |  |
| COc1ccc(NC(=O)c2cc3c(-c4ccc(OC)c(OC)c4)nn(C)c3s2)cc1OC | inconclusive: 39.8 µM [inhibitor, partial curve] |  |
| O=C(NC1CC1)C1CCN(S(=O)(=O)c2cc(Cl)ccc2Cl)CC1 |  | inactive: 0.286% |
| O=C(O)c1cccc(-c2ccc(/C=N/NC(=O)C3COc4ccccc4O3)o2)c1 (centres undefined) | inconclusive: 100 µM [inhibitor, single point] |  |
| Cc1ccccc1NC(=O)Cn1c(SCC(=O)Nc2ccc(F)cc2)nc2ccccc21 |  | inactive: -8.3% [at 60.1 µM] |
| O=C(Nc1ccc(S(=O)(=O)Nc2nccs2)cc1)c1cc(-c2ccccn2)nc2ccccc12 |  | inactive: -22.3% |
| CCOc1ccccc1N(CC(=O)NCCSCc1ccco1)S(=O)(=O)c1ccccc1 | inconclusive: 100 µM [inhibitor, single point] |  |
| C[C@@H]1O[C@@H](O[C@@H]2[C@@H](O)[C@H](OCCc3ccc(O)c(O)c3)O[C@H](CO)[C@H]2OC(=O)/C=C/c2ccc(O)c(O)c2)[C@H](O)[C@H](O)[C@H]1O | active: 22.4 µM |  |
| O=C(NCCCN1CCOCC1)c1cc(-c2ccco2)nc2ccccc12 | active: 79.4 µM |  |
| COc1ccc(C2C=C(c3cccc(OC)c3)Nc3c(C(=O)Nc4ccccc4)cnn32)cc1 (centres undefined) |  | inactive: -20.4% |
| COc1cc2nc(Cl)nc(NC(C)C)c2cc1OC |  | inactive: -21.8% |
| C=CCn1c(Cc2nc3ccc(Cl)cc3[nH]2)n[nH]c1=S | inconclusive: 89.1 µM [inhibitor, partial curve, poor fit] |  |
| Nc1c(C(=O)Nc2nc3ccccc3s2)sc2nc(-c3cccs3)ccc12 | inconclusive: 100 µM [inhibitor, single point] |  |
| CCCCn1c(SCC(=O)NCc2ccco2)nnc1-c1ccoc1C | active: 35.5 µM |  |
| c1ccc(Oc2nc(NCc3ccco3)nc(NCc3ccco3)n2)cc1 | inconclusive: 89.1 µM [inhibitor, single point] |  |
| C=CCn1c(SCC(=O)NCc2ccco2)nnc1-c1ccc2ccccc2n1 | inconclusive: 89.1 µM [inhibitor, partial curve, poor fit] |  |
| O=C(CCNC(=O)c1ccc([N+](=O)[O-])cc1)Oc1ccc(F)c(F)c1 | inconclusive: 79.4 µM [inhibitor, single point] |  |
| Cc1cc(C)n(CCc2nc(-c3ccco3)cs2)n1 | active: 70.8 µM |  |

| SMILES | Potency | activity, negative = inhibition |
| --- | --- | --- |
| Cc1ccc(NC(=O)CSc2ccccc2NC(=O)c2ccccc2Cl)cc1Cl | inconclusive: 89.1 µM [inhibitor, partial curve, poor fit] |  |
| O=C1CSc2cc(Cl)ccc2N1 | inconclusive: 89.1 µM [inhibitor, single point] |  |
| O=C(CCc1c[nH]c2ccccc12)N/N=C/c1ccc2c(c1)OCO2 |  | inactive: -13.6% |
| Cc1cc(=O)c2c(O)c3c(O)cc(O)c4c5c(O)cc(O)c6c(O)c7c(=O)cc(C)c8c1c2c(c34)c(c65)c78 | active: 7.94 µM and active: 10 µM |  |
| O=C(COC(=O)c1ccccc1O)NCc1ccco1 | inconclusive: 89.1 µM [inhibitor, single point] |  |
| CC(C)c1ccc(NS(=O)(=O)c2ccc3[nH]cc(C(=O)NC4CCCC4)c(=O)c3c2)cc1 | inconclusive: 89.1 µM [inhibitor, single point] |  |
| FC(c1nc2ccccc2[nH]1)C(F)(F)F (centres undefined) |  | inactive: 3.76% |
| CC(C)N(C(=O)CSc1nnc(CN2CCCCCC2=O)n1-c1ccccn1)C(C)C | inconclusive: 89.1 µM [inhibitor, single point] |  |
| Cc1cc(C)n2c(Nc3ccc(Cl)cc3)c(-c3ccsc3)nc2n1 | inconclusive: 89.1 µM [inhibitor, partial curve] |  |
| COc1cccc(NS(=O)(=O)c2ccc3c(c2)C2C=CCC2C(c2ccc(C(=O)O)cc2)N3)c1 (centres undefined) | active: 15.8 µM |  |
| CCOC(=O)C(CCc1ccccc1)NC(C)C(=O)N1CCCC1C(=O)O (centres undefined) |  | inactive: -10% [at 60.1 µM] |
| COC/C=C/C1=CC2=CC(=O)C(C)(OC(=O)c3cnc4ccccc4n3)C(=O)C2=CN1c1ccccc1 (centres undefined) | active: 79.4 µM |  |
| CCc1nnc(NS(=O)(=O)c2ccc(NC(=O)c3ccc(Cl)cc3)cc2)s1 | inconclusive: 79.4 µM [inhibitor, partial curve, poor fit] |  |
| O=C(OCC(=O)N1CCN(C(=O)COC(=O)c2ccccc2NCCO)CC1)c1ccccc1NCCO | inconclusive: 100 µM [inhibitor, single point] |  |
| CN(Cc1ccco1)c1ncncc1-c1cccnc1 | inconclusive: 11.2 µM [inhibitor, partial curve] |  |
| COc1ccc(C(NC(=O)/C=C/c2ccco2)c2ccc(OC)cc2)cc1 |  | inactive: -7.14% |
| CCc1ccccc1NC(=O)Cn1nnc(C(=O)NCc2ccccc2Cl)c1N | inconclusive: 100 µM [inhibitor, partial curve, poor fit] |  |
| O=C(/C=C/c1ccc(O)c(O)c1)NC(=O)c1ccccc1O | active: 31.6 µM |  |
| COc1cc2cc(Oc3ccc4ccc(=O)oc4c3)c(=O)oc2cc1OC1OC(COC(=O)CC(C)(O)CC(=O)O)C(O)C(O)C1O (centres undefined) | inconclusive: 56.2 µM [inhibitor, partial curve, poor fit] |  |
| O=C(C[N+]12CN3CN(CN(C3)C1)C2)c1ccc(O)c(O)c1 | active: 3.16 µM |  |
| COc1ccc(N2CC(C(=O)NC3CCSC3=O)CC2=O)cc1 (centres undefined) |  | inactive: -9.13% |
| O=C(O)c1cccc(NC(=S)NC(=O)c2ccc(-c3ccccc3)cc2)c1 |  | inactive: -7.73% |
| O=C(c1cccc(-n2cccc2)c1)N1CCN(S(=O)(=O)c2c(F)cccc2F)CC1 | inconclusive: 89.1 µM [inhibitor, single point] |  |

— PubChem BioAssay AID588579 (National Center for Advancing Translational Sciences (NCATS), 2011)
